Results published in PubChem BioAssay AID686979 (National Center for Advancing Translational Sciences (NCATS), 2013).
Values joined by “and” are separate entries in the source; they are usually repeats but may differ in a detail not shown here. Equal entries are not always repeated. Out of some 420,000 compounds screened, about 50,000 (12%) were called active. The inconclusive results got no clear call from the source; some entries with a clear call stand among them for comparison. Calls come from the whole dose curve; as a rule, active = well fitted inhibition curve with a large enough effect; inconclusive = small, poorly fitted or top-dose-only effect; inactive = flat fitted curve, though single readings scatter. No potency is given beside an inconclusive call; the fits are too rough.

assay: qHTS for Inhibitors of human tyrosyl-DNA phosphodiesterase 1 (TDP1): qHTS in cells in presence of CPT; conditions: chicken DT40 Tdp1-/-;hTDP1 cells + 20 nM CPT, ATP luminescence, 48 h; activity change, negative = growth inhibition: at 46.2 µM (top of the series); note: nearly all actives have a fitted effect of over 55% in size
Method in brief: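 Cell growth measured by CellTiter-Glo luminescence after a minimum 48 h, 37 C compound exposure with 20 nM CPT in Tdp1-knockout DT40 cells stably expressing hTDP1, seeded 400/well; qHTS titration format.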
% is set by controls: 0 for no effect and ±100 for the full control effect; potency is the fitted concentration of half-maximal effect; tags give direction and shape of the fitted curve.

Structure (SMILES)	Potency	activity change, negative = growth inhibition
CC(=O)Nc1ccc(C(=O)CSc2nnc(Cn3nnc4ccccc43)n2C)cc1	inconclusive [inhibitor, single point]	–
Cc1ccccc1NC(=O)C(=O)NNC(=O)COc1ccc2ccccc2c1	inconclusive [inhibitor, single point]	–
COc1cccc(-c2nnc3sc(CN4CCCCC4)cn23)c1	active: 1.16 µM	–
COc1ccc(C(=O)NC(=S)N(C)Cc2ccccc2)cc1Br	inconclusive [inhibitor, single point]	–
Cc1nnc(Sc2cc(NCCCO)c([N+](=O)[O-])c3nonc23)s1	active: 1.46 µM	–
CS(=O)(=O)Nc1cccc(-c2nccc(Nc3ccc(F)cc3)n2)c1	inconclusive [inhibitor, single point]	–
COC(=O)c1ccc(NC(=O)CC2C(=O)N(c3cccc(C)c3)C(=O)N2C2CCCC2)cc1 (stereo not drawn)	inconclusive [inhibitor, single point]	–
Cc1cc(C)cc(NC(=O)CN(Cc2ccccc2)S(C)(=O)=O)c1	inconclusive [inhibitor, single point]	–
CCOc1ccc(N(CC(=O)NCCSCc2ccc(Cl)cc2)S(C)(=O)=O)cc1	inconclusive [inhibitor, single point]	–
CC(C)CCNC(=O)c1c[nH]c2ccc(S(=O)(=O)N3CCOCC3)cc2c1=O	inconclusive [inhibitor, partial curve, poor fit]	–
CCCCOC(=O)c1ccc(NC(=O)c2cc(Cl)ccc2OC)cc1	inconclusive [inhibitor, single point]	–
COc1ccc(C(=O)Nc2nnc(-c3ccccc3)s2)cc1	inconclusive [inhibitor, single point]	–
Cc1ccc(S(=O)(=O)N2CCC(=O)N(CCOCc3cccc(F)c3)CC2)cc1	inactive	–
O=C1NC[C@H](Cc2ccc(O)cc2)N(C[C@@H]2CCCN2C[C@H](Cc2ccc(O)cc2)N2C[C@H](Cc3ccccc3)N(CC3CCCCC3)C(=O)C2=O)C1=O	inactive	–
O=C(c1cccc(Cl)c1)N1CCN(c2ccc3c(c2)C2CC3CCN2C(=O)OCc2ccccc2)CC1 (stereo not drawn)	inconclusive [inhibitor, single point]	–
Cc1nc2ccccc2c2oc(C(=O)NCCCN3CCCC3=O)cc12	inconclusive [inhibitor, single point]	–
Cc1sc2nc(CSCC(=O)N(CCC#N)c3ccccc3F)[nH]c(=O)c2c1C	inconclusive [inhibitor, single point]	–
CCC(c1nc2ccccc2[nH]1)N(Cc1cccnc1)C(=O)c1cc(-c2ccccc2)on1 (stereo not drawn)	inconclusive [inhibitor, single point]	–
O=C(NCCCN1CCCC1=O)c1ccc([N+](=O)[O-])s1	inconclusive [inhibitor, single point]	–
O=C(N/N=C/c1cc(Br)cs1)c1ccccc1[N+](=O)[O-]	inconclusive [inhibitor, single point]	–
O=C(C1CCC(Cn2c(=O)c3sccc3n(Cc3cccc(F)c3)c2=O)CC1)N1CCCCC1 (stereo not drawn)	inconclusive [inhibitor, single point]	–
O=C1CCC/C(=N\NC(=O)c2ccc(COc3ccccc3-c3ccccc3)cc2)C1	inconclusive [inhibitor, single point]	–
COc1ccc(NC(=O)c2c(C)oc3ccc(O)c(CN4CCC(C)CC4)c23)cc1	active: 10.3 µM	–

Structure (SMILES)	Potency	activity change, negative = growth inhibition
CC(C)(C)c1nnc(NC(=O)C2CCN(C(=O)c3ccccc3)CC2)s1	active: 14.1 µM	–
COc1ccccc1Nc1nn2c(=O)c3ccc(C(=O)NCc4ccc(F)cc4)cc3nc2s1	active: 3.66 µM	–
O=C(NN=Cc1cccc([N+](=O)[O-])c1)c1cccc2ccccc12	–	inconclusive: -31.4% [inhibitor]
CCn1c(COc2cc(C)cc(C)c2)nnc1SCC(=O)N1CCN(c2ccccc2)CC1	inconclusive [inhibitor, partial curve]	–
CC(C)=CCC/C(C)=C/CNC(=O)C[C@H]1C[C@H](C(=O)N(C(C)C)C(C)C)[C@@]2(C)c3[nH]c4cc(-c5ccco5)ccc4c3CCN2C1=O	inconclusive [inhibitor, single point]	–
COC(=O)c1ccccc1NC(=O)CN(C)S(=O)(=O)c1ccc(OC)cc1	inconclusive [inhibitor, partial curve]	–
CCCCCCSc1ccc([C@H]2N[C@@](Cc3ccccc3)(C(=O)OC)[C@H]3C(=O)N(C)C(=O)[C@@H]23)cc1OC	inconclusive [inhibitor, single point]	–
O=C(NCCc1ccccc1)C(=O)NCC(c1cccnc1)N1CCN(c2ccccc2F)CC1 (stereo not drawn)	active: 20.6 µM	–
O=C(CN1CCN(S(=O)(=O)c2ccc(F)cc2)CC1)Nc1cc(C(F)(F)F)ccc1Cl	active: 20.6 µM	–
CC(=O)Nc1ccccc1NC(=O)C/C(C)=N/NC(=O)c1ccc([N+](=O)[O-])c(Cl)c1	inactive	–
CN1CCN(c2nc(-c3ccccc3)nc(-c3ccccc3)c2C#N)CC1	inconclusive [inhibitor, single point]	–
COc1ccc(/C=C2/C=Cc3ccccc32)cc1	inactive	–
COc1ccc(CCNC(=O)c2ccc(CS(=O)(=O)Cc3cccc(C)c3)o2)cc1OC	active: 14.6 µM and active: 20.6 µM	–
Cc1ccc(N(C)S(=O)(=O)c2cccc(C(=O)Nc3ccc(C)cn3)c2)cc1	inconclusive [inhibitor, single point]	–
CCOC(=O)c1sc(N/N=C/c2ccccc2)nc1C	inconclusive [inhibitor, single point]	–
CC(C)(C)c1nc(SCC(=O)NNC(=O)c2ccccc2)c2ccccc2n1	inconclusive [inhibitor, single point]	–
CSc1nnc2c3ccccc3c3ccccc3c2n1	active: 14.6 µM	–
CCOCc1nnc(NC(=O)C2c3ccccc3Oc3ccccc32)s1	inconclusive [inhibitor, single point]	–
CCOc1ccc(NC(=O)C2CCN(S(=O)(=O)c3ccc4c(c3)NC(=O)C(C)S4)CC2)cc1 (stereo not drawn)	inconclusive [inhibitor, single point]	–
CCOc1ccc(N(C)C(=O)CCc2nnc3ccc(N4CCCCC4)nn23)cc1	–	inconclusive: -30.5% [inhibitor]
COc1ccc(C(=O)Nc2ccc(-c3cc4ccccc4oc3=O)c(C)c2)cc1OC	active: 18.4 µM	–
Cc1cc(C(F)(F)F)nn1CC(=O)Nc1ccc2c(c1)OCO2	inactive	–
Cc1cc(C(=O)CSc2nc(N)cc(=O)[nH]2)c(C)n1CCc1ccc(F)cc1	active: 18.4 µM	–

Structure (SMILES)	Potency	activity change, negative = growth inhibition
CC(C)(C)OC(=O)N(CCc1ccccc1)Cc1ccccc1OCc1cccc(NC(=O)C2CCCC2)c1	active: 20.6 µM	–
Cc1ccccc1NC(=O)NC1CCCCCCC1	inactive	–
Cc1ccc2ccccc2c1C(O)c1ncc(-c2ccccc2F)[nH]1 (stereo not drawn)	inconclusive [inhibitor, single point]	–
Cc1c(C(=O)N2CCCCC2)c(S(=O)(=O)Nc2ccc(F)cc2F)c(C)n1C	inactive	–
CCN(C(=O)c1cc(OC)c(OC)c(OC)c1)C1CCCCC1	inconclusive [inhibitor, single point]	–
C=CCOc1ccc(Br)cc1CNCCO	inactive	–
N#CC(=Cc1ccnc2ccccc12)c1ccccc1	inconclusive [inhibitor, partial curve]	–
CCc1cccc2c(-c3ccc(F)cc3)nc(SCC(=O)Nc3ccccc3)nc12	inconclusive [inhibitor, single point]	–
COC(=O)c1ccc(NC(=O)c2sc3nc(-c4ccccc4)cn3c2C)cc1	active: 6.51 µM	–
Cc1cc(OCC(=O)Nc2ccc(Br)cc2)cc2c1C(=O)CC(C)(C)O2	active: 29.1 µM	–
O=C(N[C@H]1/C=C\[C@@H](O)CCCC1)OCc1ccccc1	inactive	–
CN(C)c1ccc(CC2C(=O)Nc3ccccc32)cc1 (stereo not drawn)	inconclusive [inhibitor, single point]	–
O=S(=O)(NCCCCNS(=O)(=O)c1cccc2cccnc12)c1cccc2cccnc12	inactive	–
CC(C)(C)c1ccc(/C=C/C(=O)O)s1	inconclusive [inhibitor, single point]	–
CCOC(=O)C1CCN(C(=S)Nc2ccc(S(N)(=O)=O)cc2)CC1	inconclusive [inhibitor, single point]	–
CCCCCCCCN1C(=O)[C@H](CC(=O)NCc2ccc(C)o2)C[C@@]2(C(=O)OCC)CCC=C12	inconclusive [inhibitor, single point]	–
CC(C)Cn1c(N)c(C(=O)COC(=O)c2ccc(Br)cc2)c(=O)n(C)c1=O	inconclusive [inhibitor, single point]	–
C/C(=C\c1ccc(Br)cc1)C(=O)c1c(C)cc(C)[nH]c1=O	inconclusive [inhibitor, single point]	–
O=C1CCc2cc(S(=O)(=O)NCCc3ccc(Cl)cc3)cc3c2N1CC3	inactive	–
C[C@@H]1Cn2cnc(C(=O)NCc3ccc(CNC(=O)OC(C)(C)C)cc3)c2C(=O)N1	inactive	–
CCNC(=S)NNC(=O)c1cc(C)on1	inactive	–
CCOC(=O)c1c(NC(=O)CN(CC)CC)sc2c1CCN(C(=O)OCC)C2	inconclusive [inhibitor, single point]	–
